The whole screen tested about 52,000 compounds, of which about 1,700 (3.3%) were called active. Cut-off read from the data, not from the text of the source: active = survival mostly below about 52% (no sharp cut-off); inactive = mostly above about 56%. Some of the results follow.
What follows are compounds tested on Wild type (assay: S. aureus survival, RN4220 and DeltatarO strains – OD600, teichoic acid synthesis inhibitors, primary screen (AID 463173)). Conditions: S. aureus RN4220 wild type/DeltatarO growth, OD600, 18 h, hits give low values, screened at 18.75 µg/mL (by protocol).

Compound	survival
Cc1ccc(-n2ncc(C(=O)N3CCC(c4ccccc4)C3)c2C2CCN(C(=O)OC(C)(C)C)CC2)cc1 (centres undefined)	inactive: 73%
CCCc1nn2c(C)c(-c3ccccc3)nc2s1	inactive: 95%
O=S(=O)(Nc1cccc(-c2ccc(N3CCOCC3)nn2)c1)c1ccc(F)cc1F	inactive: 83%
CN(C)c1ccc(C(C(=O)NCc2ccccc2)N(Cc2ccco2)C(=O)c2snc(C(N)=O)c2N)cc1 (centres undefined)	inactive: 119%
O=C(Nc1nc(-c2ccc(Br)cc2)ns1)c1ccccc1F	inactive: 92%
Cc1cc(C)c2oc(C(=O)Nc3ccc(S(=O)(=O)N(C)c4ccccc4)cc3)cc(=O)c2c1	inactive: 84%
O=c1c2c3c(sc2n(Cc2cc(=O)n4ccccc4n2)c(=O)n1-c1ccc(Cl)cc1)CCC3	inactive: 89%
COC(=O)CCN(C(=O)c1c(C)oc2ncnc(N3CCOCC3)c12)c1ccccc1	active: 0%
Cc1cccc(N2CCN(C(=O)C3CCN(S(=O)(=O)c4ccc5c(c4)oc(=O)n5C)CC3)CC2)c1C	inactive: 88%
O=C(/C=C/c1ccccc1)N1CCN(Cc2cc(=O)n3nc(-c4ccccc4)sc3n2)CC1	inactive: 97%
CCC(=O)N1CCc2cc(S(=O)(=O)N(C)c3cccc(C)c3)ccc21	inactive: 86%
CC(C)NC(=O)Cn1c(SCC(=O)N2CCc3ccccc32)nc2ccccc21	inactive: 107%
COC(=O)CSc1nnc2n(-c3ccccc3)c(=O)c3c4c(sc3n12)COC(C(C)C)C4 (centres undefined)	inactive: 135%
CCCOc1ccc(C2C(=O)N(C3CCCCCC3)CC(=O)N2CCCOCC)cc1OC (centres undefined)	inactive: 73%
Cc1ccccc1NC(=O)c1sc2nc(N3CCOCC3)c3c(c2c1N)CC(C)(C)OC3	inactive: 67%
CCN(c1cc(C)cc(C)c1)S(=O)(=O)c1nnc(NC(=O)c2cccc(F)c2)s1	inactive: 44%
Cc1ccc(OCc2n[nH]c(=S)n2C2CCCCC2)cc1	inactive: 105%
CCOc1ccccc1N1CC(c2nc3ccccc3n2CCOc2ccc(C(C)(C)C)cc2)CC1=O (centres undefined)	inactive: 41%
CCOc1ccccc1N(C)C(=O)Cn1nc(Cc2cccnc2)c2ccccc2c1=O	inactive: 82%
COc1cc(NC(=O)N2CCN(c3cc(-c4noc(C)n4)ccc3C)CC2)cc(OC)c1OC	active: 14%
COc1ccc2c(c1)c1c(c(=O)n(CCc3ccccc3)c(=O)n1Cc1ccc(Cl)cc1)n2C	inactive: 63%
Cc1ccc(NC(=O)/C(C#N)=C\c2ccc(Cl)cc2Cl)cc1C	inactive: 46%
Cc1ccc(-c2ccc(CCC(=O)O)n2-c2ccc(C(C)C)cc2)cc1	inactive: 61%

Compound	survival
Nc1c(-c2nc(-c3ccccc3)no2)nnn1CC(=O)Nc1ccccc1	inactive: 75%
COc1ccccc1CNC(=O)Cn1ncc2c(C)n(Cc3ccccc3Cl)c(C)c2c1=O	inactive: 79%
CCOc1ccccc1NC(=O)N1CCN(S(=O)(=O)c2ccc3c(ccn3C)c2)CC1	inactive: 86%
CC(C)c1ccccc1NC(=O)CSc1nnc(COc2ccccc2Cl)o1	inactive: 118%
CCN(c1ccc(C)cc1)S(=O)(=O)c1nnc(NC(=O)c2cccs2)s1	inactive: 22%
O=C(O)CCCN1C(=O)C(=O)/C(=C(/O)c2ccccc2)C1/C=C/c1ccccc1 (centres undefined)	inactive: 104%
CCN(CC)CCNC(=O)c1cc2c(=O)[nH]c3ccc(C)cc3c2s1	inactive: 125%
Cc1nnc(SCc2ccccc2)n1N	inactive: 106%
CCN(CC)C(=O)C1=C(C)Nc2nc3ccccc3n2C1c1ccc(Cl)cc1 (centres undefined)	inactive: 75%
CSc1ncc(C(=O)Nc2cccc(Cl)c2C)c(-c2ccccc2)n1	inactive: 129%
Cc1cc(NC(=O)CSc2ncc(C(=O)Nc3ccccc3)c(=O)n2C)no1	inactive: 93%
O=C(NCc1ccccn1)c1nn(-c2ccccc2Cl)nc1CO	inactive: 93%
COc1ccccc1CNC(=O)C(Cc1ccccc1)NS(=O)(=O)c1ccc2c(c1)CCN2C(C)=O (centres undefined)	inactive: 68%
Cc1ccccc1NC(=O)c1ccc(CNS(=O)(=O)c2ccc3c(c2)C(C)(C)C(=O)N3C)cc1	inactive: 93%
CCCCOc1ccc(C(=O)NCCc2csc3nc(-c4ccccc4F)nn23)cc1	inactive: 82%
Cc1ccc(Cl)cc1N(C)C(=O)c1cc2ccc3cccnc3c2[nH]1	inactive: 82%
CCNC(=O)CC1C(=O)N(c2ccc(F)cc2)C(=O)N1Cc1ccc(C)cc1 (centres undefined)	inactive: 77%
O=C(Nc1nnc(C2CCCC2)s1)C1CC1	inactive: 105%
CC1(C)CC(C(CC(=O)O)Cc2ccccc2)CCO1 (centres undefined)	inactive: 132%
CCOc1ccccc1C(=O)NCC(c1ccc(N(C)C)cc1)N1CCCC1 (centres undefined)	inactive: 80%
CS(=O)(=O)N1CCC(N2CCN(Cc3ccc(F)cc3)C(=O)C2=O)CC1	inactive: 81%
CNC(=S)N(Cc1ccco1)Cc1cc2ccc(C)cc2[nH]c1=O	inactive: 116%
CCn1c(CN2CCN(C)CC2)nc2cc(NC(=O)c3cc(OC)c(OC)c(OC)c3)ccc21	inactive: 98%

Compound	survival
CSc1ccc(CCNC(=O)c2ccc3c(c2)c(C)c(C)n3Cc2ccc(F)cc2)cc1	inactive: 70%
COCCn1c(CNC(=O)c2cc(OC)c(OC)c(OC)c2)nc2cccnc21	inactive: 83%
CCOC(=O)CNC(=O)Cn1nc(N2CCN(c3ccccc3)CC2)ccc1=O	inactive: 82%
N#Cc1c(N)nc(SCC(=O)c2ccc(Cl)cc2)c(C#N)c1-c1ccco1	inactive: 110%
Cc1cc2ncn(C(=O)N3CCCCC3)c2cc1C	inactive: 104%
CC(=O)c1cccc(NC(=O)c2cc(-c3ccc4c(c3)OCCO4)on2)c1	inactive: 77%
CCN(CC)C(=O)C1CCCN(c2ncnc3c2nc2n3CCCCC2)C1 (centres undefined)	inactive: 70%
COc1ccc(CCNC(=O)c2cc3c(=O)[nH]c4ccc(C)cc4c3s2)cc1OC	inactive: 64%
CCOc1ccccc1CNC(=O)CN1C(=O)C2CCCCN2c2ccc(C(=O)N(C)C)cc21 (centres undefined)	inactive: 128%
COC(=O)c1ccccc1NC(=O)CCCS(=O)(=O)c1nc(-c2ccccc2OC)cc(C(F)(F)F)n1	inactive: 86%
O=C(Nc1ccc2nsnc2c1)C1CC1	inactive: 89%
COC(=O)c1ccc(NC(=O)c2c(NCc3ccc(OC)c(OC)c3)sc3c2CCCC3)cc1	inactive: 76%
Cc1nn(C)c2c1c(C(F)(F)F)cc(=O)n2CC(=O)NC(C)(C)C	inactive: 64%
CCOc1ccc(OCC)c(NC(=O)c2c(C)nn(-c3ccccc3)c2-n2cccc2)c1	inactive: 32%
COc1ccc(CCCc2nnc(SCC(=O)Nc3ccc(Cl)cc3)o2)cc1	inactive: 89%
CCc1ccc(CNC(=O)c2sc3ncnc(N(C)C4CCCCC4)c3c2C)cc1	inactive: 94%
COc1ccc(-c2cc(-c3ccc(F)cc3)nc3c2COc2ccccc2-3)cc1	inactive: 60%
Cc1oc2ncnc(N3CCCCC3)c2c1C(=O)Nc1cccc(F)c1	inactive: 134%
CCc1ccccc1NC(=O)c1ccc2[nH]c(C)c(C)c2c1	inactive: 136%
Cc1ccccc1CN1C(=O)C(O)(CC(=O)c2cccc(Br)c2)c2ccccc21 (centres undefined)	active: 10%
CCOc1ccccc1C1Nc2ccccc2-c2nnc(SCc3ccccc3)nc2O1 (centres undefined)	inactive: 75%
Cc1c(C(=O)NCc2ccccc2)oc2c1-c1[nH]ncc1CC2	inactive: 83%
COc1ccc(Nc2cc(C(=O)NCCCN(C)C3CCCCC3)c3ccccc3n2)cc1	inactive: 99%

Compound	survival
CCCN(C(=O)Cn1nc(Cc2ccncc2)c2ccccc2c1=O)c1ccccc1C	inactive: 94%
CCOc1ccc(-c2nnc(SCC(=O)NCCc3ccccc3)nc2-c2ccc(OCC)c(OC)c2)cc1OC	inactive: 121%
Cc1ccc(C)c2[nH]c(=O)c(CN(CCCN3CCCC3=O)S(=O)(=O)c3ccc(F)cc3)cc12	inactive: 111%
COCCCn1c(=N)c(C(=O)NC2CCCC2)cc2c(=O)n3cc(C)ccc3nc21	inactive: 71%
Cc1cc(O)c(CN2CCN(c3ccc(F)cc3)CC2)c2oc(=O)cc(C)c12	inactive: 79%
Cc1cccc(C(=O)Nc2nnc(S(=O)(=O)N3c4ccccc4CC3C)s2)c1 (centres undefined)	inactive: 21%
COc1ccc(Br)cc1CNC(=O)c1ccc(-n2c(C)cc3c2CCC(C)C3)cc1 (centres undefined)	inactive: 136%
O=C(O)CCc1ccc(-c2ccc(Cl)cc2)n1-c1cccc(C(F)(F)F)c1	inactive: 78%
CCOc1ccc(CCNC(=O)c2nn(-c3ccc(OC)cc3)c(=O)c3c2c2ccccc2n3C)cc1OCC	inactive: 83%
Cn1c(CN2CCCCC2)nc2cc(NC(=O)c3ccc(Cl)cc3)ccc21	inactive: 139%
Cc1ccc2[nH]c3c(=O)n(CC(=O)N(C)Cc4ccccc4)ncc3c2c1	active: -3%
O=C(Cc1ccc(F)cc1)NCCc1csc(-c2ccc(C(F)(F)F)cc2)n1	inactive: 76%
CCOC(=O)c1cnc(NCc2ccc(Cl)cc2)c2ccccc12	inactive: 81%
CCN(CC)C(=O)c1ccccc1NC(=O)c1cccc(S(=O)(=O)N2CCC(C)CC2)c1	inactive: 63%
O=C(CSc1nc2ccccc2s1)N=Nc1c(O)n(CN2CCCC2)c2ccccc12	inactive: 117%
O=C(NC1CCCCC1)/C(=C/c1ccc(Cl)cc1)NC(=O)c1ccccc1	inactive: 76%
Cc1ccc(C(=O)CSc2nnc3ccc4ccccc4n23)cc1	inactive: 46%
N#Cc1cc2c(=O)n3ccccc3nc2n(-c2nnc(SCc3ccccc3)s2)c1=O	inactive: 91%
COc1cccc(CNC(=O)c2ccc(CS(=O)Cc3ccc(Cl)cc3)o2)c1 (centres undefined)	inactive: 94%
Cc1cccc(N(C)c2nc3ccc(C)cc3n3nnnc23)c1	inactive: 74%

Reference: PubChem BioAssay AID463173 (ICCB-Longwood Screening Facility, Harvard Medical School, 2010)
